# Measurements published in US10100076B2, “Modified nucleosides for the treatment of viral infections and abnormal cellular proliferation” (priority 2000, dated 2018).
# System: Bovine viral diarrhea virus (BVDV), strain NADL
# Test: BVDV antiviral assay in MDBK cells, viral load by real-time RT-PCR
# Assay type: cell-based
# Conditions: not given
row,SMILES,"anti-BVDV / anti-flaviviridae activity, in words"
1,O=c1nc(NO)ccn1[C@@H]1O[C@H](CO)[C@@H](O)[C@H]1O [β-D-BS],potent anti-flaviviridae activity

# Same assay, conditions: MOI 0.02, 22 hours, FIG. 3
row,SMILES,"viral RNA after treatment, in words"
1,"O=c1[nH]c(=O)n([C@@H]2O[C@H](CO)[C@@H](O)[C@H]2O)cc1O [β-D-CL, 5-hydroxyuridine]",almost complete absence of viral RNA
2,"NC(=O)c1ncn([C@@H]2O[C@H](CO)[C@@H](O)[C@H]2O)n1 [RIB, ribavirin, reference compound]",almost complete absence of viral RNA

# Same assay, conditions: conc. 10 μM; MDBK cells; maximal viral load reduction observed
row,SMILES,"Ave. Log Reduction, BVDV viral load 22 hours post infection [log]"
1,O=c1nc(NO)ccn1[C@@H]1O[C@H](CO)[C@@H](O)[C@H]1O [β-D-BS],1.48

# Same assay, conditions: conc. 40 μM; MDBK cells; maximal viral load reduction observed
row,SMILES,"Ave. Log Reduction, BVDV viral load 22 hours post infection [log]"
1,OC[C@H]1O[C@@H](n2cnc3c(Cl)ncnc32)[C@H](O)[C@@H]1O [β-D-DJ],1.58
2,"O=c1[nH]c(=O)n([C@@H]2O[C@H](CO)[C@@H](O)[C@H]2O)cc1O [β-D-CL, 5-hydroxyuridine]",3.10
3,O=c1ccn([C@@H]2O[C@H](CO)C[C@H]2O)c(=O)[nH]1 [β-D-CM],1.77

# Same assay, conditions: conc. 100 μM; MDBK cells; maximal viral load reduction observed
row,SMILES,"Ave. Log Reduction, BVDV viral load 22 hours post infection [log]"
1,OC[C@@H]1C[C@@H](O)[C@H](n2cnc3c(Cl)ncnc32)O1 [β-D-DL],1.33
2,Nc1nc(=O)n([C@@H]2O[C@H](CO)[C@@H](O)[C@H]2O)cc1F [β-D-AQ],0.87
3,CC(=O)Nc1ccn([C@@H]2O[C@H](CO)[C@@H](O)[C@@H]2O)c(=O)n1 [β-D-BO],0.80
4,[2H]c1c(N)nc(=O)n([C@@H]2O[C@H](CO)[C@@H](O)[C@@H]2O)c1[2H] [β-D-AO],2.24
5,CC(=O)O[C@H]1[C@@H]2Oc3nc(=N)ccn3[C@@H]2O[C@@H]1CO [β-D-MD],2.16
6,Nc1nc(=O)n(C2OC(CO)C(Br)C2O)cc1F [β-D-AT],1.42
7,Nc1ccn([C@@H]2O[C@H](CO)[C@@H](O)[C@@H]2O)c(=O)n1 [β-D-AA],2.43
8,Nc1ccn([C@@H]2O[C@H](CO)C[C@H]2O)c(=O)n1 [β-D-AJ],1.34
9,N=c1nc2c(c[nH]1)[C@@H]1O[C@H](CO)[C@@H](O)[C@@H]1O2 [β-D-TA],1.30
10,N=c1nc(N)ccn1[C@@H]1O[C@H](CO)[C@@H](O)[C@@H]1O [β-D-BL],1.20
11,N=c1nc2n(cc1F)[C@@H]1O[C@H](CO)[C@@H](O)[C@@H]1O2 [β-D-MF],1.41
12,Nc1nc(=O)n([C@@H]2O[C@H](CO)[C@H](Br)[C@H]2O)cc1I [β-D-BE],1.23
13,Nc1nc(SSc2nc(N)nc3c2ncn3[C@@H]2O[C@H](CO)[C@@H](O)[C@H]2O)c2ncn([C@@H]3O[C@H](CO)[C@@H](O)[C@H]3O)c2n1 [β-D-QA],1.50
14,Cc1ccc(S(=O)(=O)O[C@@H]2[C@@H](O)[C@H](n3ccc(N)nc3=O)O[C@@H]2CO)cc1 [β-D-AL],1.55
15,Nc1nc(F)nc2c1ncn2[C@@H]1C=C[C@H](CO)O1 [β-L-FC],2.39
16,Nc1nc(=O)n([C@@H]2O[C@H](CO)[C@@H](O)[C@@H]2O)cc1F [β-D-AP],1.36
17,CC1(CO)CO[C@@H](n2cnc3c(N)nc(F)nc32)C1 (stereo partly drawn) [β-D-VA],4.69
18,N=c1ccn2c(n1)O[C@H]1[C@H](O)[C@@H](CO)O[C@H]12 [β-D-ME],2.41
19,Nc1ncnc2c1ncn2[C@@H]1O[C@H](CO)C[C@H]1O [β-D-DK],2.17
20,Nc1ccn([C@@H]2O[C@H](CO)[C@H](Br)[C@H]2O)c(=O)n1 [β-D-AI],1.52
21,CS(=O)(=O)OC1C(CO)OC(n2ccc(N)nc2=O)C1O [β-D-AK],1.90
22,Nc1nc(=O)n([C@@H]2C=C(CO)[C@@H](O)[C@H]2O)cc1F [β-D-HB],2.26
23,Nc1ccn([C@@H]2C=C(CO)[C@@H](O)[C@H]2O)c(=O)n1 [β-D-HA],2.87
24,Nc1ccn([C@@H]2O[C@H](CO)[C@@H](O)[C@@H]2Cl)c(=O)n1 [β-D-AN],1.21
